Measured values from the supplement of paper PMC10126150.
Sequences with one replicate were seen in a single cluster, so their values are uncertain.

tested on: ATP; experiment: switch fluorescence ratio, 500 uM ATP over buffer (Cy3 cluster intensity, sum of 5 cycles each) (fold (ratio)); higher = stronger signal-on switching upon ATP binding; sequences stand for … in TCGTCGGCAGCGTCAGATGTGTATAAGAGACAGTTTTTTTTTTTTTTTTTTTTTTTTT…TC; details: aptamer strand: ATP DNA aptamer (quencher-CACCTGGGGGAGTATTGCGGAGGAAGG + anchor), 100 nM annealed; ATP concentration: 500 uM; one replicate
Procedure, shortened: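 Cy3-labelled switching-strand clusters on a modified Illumina MiSeq flow-cell were annealed to 100 nM quencher-labelled ATP aptamer and imaged first in selection buffer, then after 15 min with 500 uM ATP at 22 °C. NaOH stripping and re-annealing separated each of five buffer/ATP cycles, and clusters outside 100-1000 RFU were excluded. The fluorescence ratio sums target-cycle Cy3 intensity over buffer-cycle Cy3 intensity per cluster and averages it per switch-domain sequence.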
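Further: ATP exposure 15 min at 22 °C before imaging.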

Sequence | switch fluorescence ratio
CGAAAGAACC | 1.01
CGAAAGCATT | 1.09
CGAAAGGGCG | 1.03
CGAAAGGGGT | 1
CGAAAGGTGG | 1
CGAAATTCAG | 1
CGAACACAGC | 1.16
CGAACCCCTT | 1.19
CGAACCGAAT | 0.976
CGAACCGAGT | 1
CGAACTTAG | 0.935
CGAAGACAAG | 1.01
CGAAGCTACG | 1.75
CGAAGGACCT | 0.93
CGAAGGCACA | 1.33
CGAAGTCGAG | 1.03
CGAAGTCTCC | 1.31
CGAATAACG | 1.06
CGAATAGATG | 0.976
CGAATCCGGA | 1.03
CGAATGATCG | 1.01
CGAATTACCG | 0.973
CGAATTGGGG | 0.939
CGACAACTGG | 0.958
CGACAAGGTA | 1.17
CGACACTAG | 1.04

Sequence | switch fluorescence ratio
CGACAGAGCG | 1.07
CGACATAAAA | 0.988
CGACATATCG | 0.91
CGACATTGGG | 1.11
CGACCAGTTT | 1.04
CGACCCAGAA | 1.04
CGACCGGTGT | 1.41
CGACCGTCTA | 1.04
CGACCTGGGC | 1.07
CGACGACGAC | 5.28
CGACGACTA | 1.57
CGACGACTAG | 1.01
CGACGTTGTA | 1.24
CGACTAAGCT | 1.06
CGACTAGGCT | 1.09
CGACTATCCG | 0.991
CGACTCAGAC | 2.06
CGACTGTGG | 0.951
CGACTTGCAG | 0.958
CGACTTTTCG | 1
CGAGAAAATT | 1.3
CGAGAAGGGA | 0.966
CGAGAATAAG | 0.948
CGAGATGTTG | 1
CGAGCAAGCA | 3.13
CGAGCAGAAA | 1.07

Sequence | switch fluorescence ratio
CGAGCAGGGA | 1.18
CGAGCAGTCG | 1.03
CGAGCATCTG | 1.08
CGAGCCAGAA | 0.995
CGAGCCATAG | 2.16
CGAGCCGCGG | 0.966
CGAGCCTCT | 0.981
CGAGCGGATC | 1.15
CGAGCTCGTT | 0.999
CGAGGAAGAA | 1.04
CGAGGAAGTC | 1.08
CGAGGAGAAC | 1.01
CGAGGAGTG | 0.97
CGAGGCTTG | 1.05
CGAGGGCGCT | 0.938
CGAGGGTTCG | 0.984
CGAGGTTTTT | 1.02
CGAGTACATA | 1.14
CGAGTACATG | 0.939
CGAGTACG | 0.988
CGAGTGATAT | 1.46
CGAGTGGTTC | 1
CGAGTGTGA | 1.03
CGAGTTCCCC | 1.1
CGAGTTCGTG | 0.962
CGAGTTGACT | 0.977

Sequence | switch fluorescence ratio
CGAGTTTTGG | 0.972
CGATAAAT | 1.02
CGATAAGGT | 0.998
CGATAATTTC | 1
CGATACCTGC | 1.08
CGATACCTTA | 1.01
CGATACGGGA | 1.07
CGATAGACCT | 1.18
CGATATTTCT | 0.991
CGATCATTTC | 0.997
CGATCCCACA | 1.01
CGATCCCGTC | 0.991
CGATCGTCAT | 1.16
CGATCGTCCC | 1
CGATCGTGGT | 1.02
CGATCTACGT | 1.02
CGATCTATAA | 0.989
CGATGCACAG | 1.13
CGATGCGATG | 1.45
CGATGTTCTG | 0.971
CGATGTTGCG | 0.977
CGATTAACAG | 0.98
CGATTAGCCT | 1.08
CGATTAGGA | 0.974
CGATTATGAC | 1.02
CGATTCATAT | 0.952

Sequence | switch fluorescence ratio
CGATTCATCC | 1.08
CGATTCTACG | 1.01
CGATTGATTT | 0.998
CGATTGCCTA | 1.03
CGATTGCGCA | 0.975
CGATTTAAGT | 1.01
CGATTTCGTG | 0.979
CGATTTCTA | 1
CGATTTTCAG | 0.955
CGCAAACGTT | 1.2
CGCAATTTTT | 4.02
CGCACAACGG | 1.2
CGCACATTAA | 1.34
CGCACCAAA | 1.06
CGCACGTACG | 1.79
CGCACGTCTA | 1.04
CGCAGACGGC | 1.08
CGCAGCAAGA | 4.46
CGCAGCTCGC | 1.84
CGCAGTTTAG | 1.14
CGCATACTTA | 3.72
CGCATATCGC | 3.22
CGCATCGTGC | 1.19
CGCATGTGTG | 1.02
CGCATGTTTA | 1.08
CGCATTCCAC | 4.03

Sequence | switch fluorescence ratio
CGCATTCCGA | 1.33
CGCATTGGG | 1.07
CGCCAAAAAA | 1.78
CGCCACATCC | 1.11
CGCCAGCGAG | 1.04
CGCCAGGCGG | 1.04
CGCCATCCAC | 1.53
CGCCATTTCG | 1.04
CGCCCACCTG | 1.07
CGCCCACGAT | 0.986
CGCCCATACT | 2.44
CGCCCGTGTG | 1.33
CGCCGATGCG | 1.06
CGCCGGATGT | 0.995
CGCCGTAAAA | 1.02
CGCCGTCGGA | 1.01
CGCCGTTAGG | 0.981
CGCCTCGTGG | 0.96
CGCCTGTTT | 1.29
CGCCTTACGA | 1.56
CGCGAAATTC | 1.05
CGCGAATGGG | 1.03
CGCGACCAGG | 1.47
CGCGAGAAAG | 1.03
CGCGATTTGT | 1.1
CGCGCAGTGG | 1.03

Sequence | switch fluorescence ratio
CGCGCGGCTA | 0.981
CGCGCTAATT | 1.04
CGCGCTGGTC | 1.05
CGCGCTTTGG | 1.04
CGCGGACAAG | 1.03
CGCGGAGTTG | 0.993
CGCGGCACGG | 0.997
CGCGGCCACG | 1.04
CGCGGCCACT | 1.07
CGCGGGCATC | 1.08
CGCGGGCTCA | 1.08
CGCGGGGCT | 1.16
CGCGGTAGTA | 1.03
CGCGGTATT | 2.06
CGCGGTTATG | 1.03
CGCGTACAGC | 1.06
CGCGTATCAA | 0.998
CGCGTATGGC | 1.1
CGCGTCGACG | 0.97
CGCGTCTACC | 1.18
CGCGTCTTAT | 0.951
CGCGTGCAG | 0.981
CGCGTTTGGG | 1.03
CGCTACACAT | 1.03
CGCTACACTG | 1.14
CGCTACAGAG | 1.08

Sequence | switch fluorescence ratio
CGCTAGCGAA | 0.968
CGCTAGCGCT | 0.991
CGCTAGGAGC | 1.04
CGCTATACCT | 3.02
CGCTCACATA | 1.09
CGCTCGAAAT | 1.06
CGCTCTACTT | 1.4
CGCTCTGGCT | 1.06
CGCTGCAGAT | 1.43
CGCTGCTTGG | 1.05
CGCTGGGG | 1.03
CGCTGTACTA | 2.26
CGCTGTTGAG | 0.98
CGCTGTTTAG | 1.02
CGCTTAAATT | 0.989
CGCTTAGAGA | 1.02
CGCTTAGGTA | 0.99
CGCTTGTCTT | 1.01
CGCTTGTGCT | 1.03
